This is one part of the list. These are noisy estimates, calculated here from bound and input reads.
Each sequence was assayed against T1, Pho4 (S. cerevisiae) (UniProt P07270) (assay: relative binding free energy (BET-seq); higher = weaker binding). Settings: reference: library average.
T1 sequence: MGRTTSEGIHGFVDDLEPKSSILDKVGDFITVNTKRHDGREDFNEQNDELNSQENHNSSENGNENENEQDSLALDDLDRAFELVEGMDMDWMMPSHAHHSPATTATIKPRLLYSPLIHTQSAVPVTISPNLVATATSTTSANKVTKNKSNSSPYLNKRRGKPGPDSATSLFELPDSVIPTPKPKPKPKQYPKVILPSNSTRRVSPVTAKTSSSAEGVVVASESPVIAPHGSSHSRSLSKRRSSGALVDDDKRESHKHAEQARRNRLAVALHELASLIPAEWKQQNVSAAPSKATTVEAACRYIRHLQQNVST

Sequence	relative binding free energy
AGGTTCACGTGTAGTG	0.19 kcal/mol
GGTATCACGTGAATGC	0.39 kcal/mol
GTCTGCACGTGTGCGG	0.07 kcal/mol
AGCGGCACGTGCGGGT	-0.2 kcal/mol
TTCGGCACGTGAGTAA	0.26 kcal/mol
TCGGGCACGTGAAGTA	0.11 kcal/mol
TTATCCACGTGAGTAG	0.32 kcal/mol
GGGGACACGTGGAGGA	0.17 kcal/mol
TAGAGCACGTGTGGCG	-0.08 kcal/mol
TATGGCACGTGCAGGA	-0.18 kcal/mol
AGTGGCACGTGATATG	0 kcal/mol
TGGGGCACGTGGAAAT	-0.04 kcal/mol
ACTCTCACGTGTGTGG	0.27 kcal/mol
CGTTTCACGTGGGTTT	0.1 kcal/mol
TGGATCACGTGTGTAT	0.14 kcal/mol
TTGGGCACGTGAAAGA	0.15 kcal/mol
AATTTCACGTGTTAAA	0.4 kcal/mol
AGACGCACGTGGGGTC	-0.16 kcal/mol
ATTGGCACGTGCGTAT	-0.25 kcal/mol
AATCTCACGTGGGGTT	0.14 kcal/mol
GTAGGCACGTGATAGA	-0.19 kcal/mol
ATTTCCACGTGGGTAT	-0.15 kcal/mol
GGGAGCACGTGCTTGG	-0.19 kcal/mol
TATGTCACGTGATAGA	0.07 kcal/mol
CAGGTCACGTGATATG	0.09 kcal/mol
GAGTTCACGTGAGGGT	0.46 kcal/mol

Sequence	relative binding free energy
GTAGGCACGTGTGATT	0.06 kcal/mol
GATGTCACGTGAGCAG	0.41 kcal/mol
TGCGGCACGTGGTATT	-0.37 kcal/mol
ATATTCACGTGTTCAT	0.21 kcal/mol
GGGTCCACGTGTGGTC	0.01 kcal/mol
GGATTCACGTGGGGGC	0.18 kcal/mol
GTGTTCACGTGTTCTT	0.38 kcal/mol
TTAGACACGTGTGTTG	0.08 kcal/mol
GGTTTCACGTGTAGGT	0.26 kcal/mol
TTTGACACGTGATTCG	0.02 kcal/mol
TGATTCACGTGGCGGT	0.07 kcal/mol
TGTATCACGTGAGATG	0.31 kcal/mol
ATGTTCACGTGGGTAT	0.24 kcal/mol
GGGTACACGTGTGGAA	0.26 kcal/mol
GTGTCCACGTGAGGGT	0.32 kcal/mol
AGTGTCACGTGTTCGT	0.01 kcal/mol
TGATACACGTGTGTAA	0.06 kcal/mol
AAGAGCACGTGGTATA	-0.2 kcal/mol
ATTCACACGTGGAGTG	-0.05 kcal/mol
GTCCGCACGTGTAGGG	-0.02 kcal/mol
CGAGGCACGTGGCCGG	-0.14 kcal/mol
AGGGTCACGTGCCAGG	-0.11 kcal/mol
TAACTCACGTGTTGGG	0.27 kcal/mol
TTATGCACGTGGAATA	-0.2 kcal/mol
TATGGCACGTGTCGCT	-0.12 kcal/mol
GCATTCACGTGTATGG	0.29 kcal/mol

Sequence	relative binding free energy
TTGGCCACGTGAAGGT	0.14 kcal/mol
GGACTCACGTGGGGAA	0.07 kcal/mol
GAAGTCACGTGGTGGA	0.17 kcal/mol
GGTTGCACGTGGCGGG	-0.06 kcal/mol
TAGATCACGTGAGGAG	0.38 kcal/mol
GTCATCACGTGTCTGG	0.31 kcal/mol
TATTTCACGTGATGAG	0.31 kcal/mol
GATGGCACGTGCATGG	-0.1 kcal/mol
ATAGCCACGTGTGTTT	-0.05 kcal/mol
CTTGACACGTGGTTGG	0.05 kcal/mol
TTAAACACGTGGTTGA	-0.12 kcal/mol
ACTGTCACGTGGTGTA	-0.14 kcal/mol
GTGCACACGTGTGTGT	0.06 kcal/mol
ATTAGCACGTGTGAAA	0.07 kcal/mol
AAAGGCACGTGGAGCG	-0.03 kcal/mol
AGGTACACGTGGGATT	0.16 kcal/mol
AGTATCACGTGCGGAG	0.08 kcal/mol
AGCGGCACGTGGTTAA	-0.14 kcal/mol
GGTGGCACGTGATTTG	0.2 kcal/mol
TAAGTCACGTGAGGAA	0.38 kcal/mol
GAAGGCACGTGGCTGT	-0.17 kcal/mol
ATATGCACGTGGTTGC	-0.09 kcal/mol
ATTAGCACGTGGTATG	-0.09 kcal/mol
TCAGTCACGTGTTAGT	0.08 kcal/mol
GATGTCACGTGTTGTG	0.13 kcal/mol
GGTACCACGTGCTGTG	-0.08 kcal/mol

Sequence	relative binding free energy
AAGGTCACGTGTGACG	0.07 kcal/mol
TAATTCACGTGGGGAG	0.09 kcal/mol
TTTTTCACGTGCCTGT	0.18 kcal/mol
GCTGCCACGTGGTGGT	-0.14 kcal/mol
AGTTCCACGTGATGTT	0.16 kcal/mol
AAGTACACGTGTGTGA	0.2 kcal/mol
TGAGGCACGTGGCCGG	-0.36 kcal/mol
GCGGGCACGTGGTAAT	-0.1 kcal/mol
ATTGTCACGTGGAGTC	0.18 kcal/mol
TTTGTCACGTGGGACT	-0.01 kcal/mol
TGAGGCACGTGTGCTG	-0.12 kcal/mol
TTGGTCACGTGAGTAA	0.41 kcal/mol
GGCGGCACGTGGTTGC	-0.03 kcal/mol
GGTTTCACGTGTAGCG	0.35 kcal/mol
GAATTCACGTGGCTTG	0.39 kcal/mol
TAGTTCACGTGGATGT	0.4 kcal/mol
GGATGCACGTGCGGGG	0.02 kcal/mol
TAATGCACGTGAATGA	0.19 kcal/mol
TACTACACGTGTTTGT	0.06 kcal/mol
CGGTGCACGTGATAGT	0.06 kcal/mol
CGTATCACGTGGTTGT	0.04 kcal/mol
TGTATCACGTGTCTGT	0.11 kcal/mol
GTGGGCACGTGTCAGA	-0.09 kcal/mol
TTGACCACGTGGATTT	0.11 kcal/mol
AGATACACGTGATTTG	0.16 kcal/mol
GGTGGCACGTGTATTG	-0.01 kcal/mol

Sequence	relative binding free energy
GCTATCACGTGTAGTG	0.29 kcal/mol
TGAACCACGTGGAGGT	0.05 kcal/mol
AATGGCACGTGCCGTG	-0.09 kcal/mol
GAAGTCACGTGAGGCG	0.34 kcal/mol
TCGGGCACGTGAGGAA	0.23 kcal/mol
AGGATCACGTGGGTTG	0.05 kcal/mol
TATTACACGTGATGAG	0.09 kcal/mol
TTACGCACGTGGGGGG	-0.17 kcal/mol
TGAGGCACGTGGGGAT	-0.13 kcal/mol
TAAGGCACGTGTTAAT	-0.05 kcal/mol
CCAGGCACGTGTGGGG	-0.18 kcal/mol
CGCGGCACGTGATTAG	0.12 kcal/mol
TTAATCACGTGAGATA	0.18 kcal/mol
ATGGTCACGTGAGAAG	0.19 kcal/mol
GGGGGCACGTGAGCTA	0.05 kcal/mol
TTTGTCACGTGTAGTG	0.19 kcal/mol
AGCTACACGTGTTAGG	0.15 kcal/mol
TGTAACACGTGTGCGT	0 kcal/mol
GTTATCACGTGAGTAG	0.32 kcal/mol
AGTTGCACGTGTTGTT	0.1 kcal/mol
GCGTACACGTGGATTG	0.12 kcal/mol
ATGGGCACGTGGACTT	-0.06 kcal/mol
TTGGGCACGTGTGGAG	0.01 kcal/mol
CGGGGCACGTGGAGGA	-0.1 kcal/mol
TATGCCACGTGGGTTG	-0.28 kcal/mol
GCTTGCACGTGTGTCG	0.11 kcal/mol

Sequence	relative binding free energy
GAGTTCACGTGGTTCA	0.3 kcal/mol
GGGCTCACGTGCTGTT	0.2 kcal/mol
TATGGCACGTGCGATG	-0.25 kcal/mol
TGGAGCACGTGAGGCA	0.11 kcal/mol
AGGTACACGTGGTTGC	-0.02 kcal/mol
TTAGTCACGTGGATAG	0.16 kcal/mol
CAGGTCACGTGTGGTC	0.06 kcal/mol
TGCGACACGTGGGATG	-0.01 kcal/mol
CTTTGCACGTGGTCGT	-0.13 kcal/mol
TGGAGCACGTGAGTTC	0.14 kcal/mol
TCATTCACGTGTGTTG	0.23 kcal/mol
TGTGTCACGTGGGCTT	-0.01 kcal/mol
TTAGTCACGTGATGAG	0.31 kcal/mol
TACGTCACGTGTAAGG	0.21 kcal/mol
ATTATCACGTGGTCAG	0.06 kcal/mol
GATTTCACGTGGGGCA	0.22 kcal/mol
GTAGGCACGTGACGTT	-0.1 kcal/mol
TGTTACACGTGCTGGC	0.24 kcal/mol
TGTGCCACGTGAGATT	0.1 kcal/mol
TTCAGCACGTGTTAGT	-0.1 kcal/mol
ATAGTCACGTGTGATG	0.18 kcal/mol
TTGGGCACGTGGGGCC	-0.31 kcal/mol
TAGCTCACGTGAGTTG	0.23 kcal/mol
CGTGTCACGTGGGTAG	-0.02 kcal/mol
TATGGCACGTGTCTGC	-0.05 kcal/mol
GTAGGCACGTGAGGTC	0.21 kcal/mol

Sequence	relative binding free energy
GGTTGCACGTGTTCGC	-0.03 kcal/mol
GGAAACACGTGGTGGC	0 kcal/mol
GGTGACACGTGTGATC	0.13 kcal/mol
TGGAGCACGTGCGGGC	-0.21 kcal/mol
CTATGCACGTGGTGGG	-0.18 kcal/mol
GGCGTCACGTGACGGG	0.23 kcal/mol
TCTAGCACGTGCGTGT	-0.1 kcal/mol
GGTTCCACGTGTAGTA	-0.02 kcal/mol
AGTTGCACGTGGCAAG	-0.17 kcal/mol
TAATACACGTGTTGGC	0.18 kcal/mol
CAGGGCACGTGGCGTT	-0.29 kcal/mol
CAGTACACGTGGGGAT	0 kcal/mol
GTATGCACGTGTGTGC	0.06 kcal/mol
AAGATCACGTGAGATT	0.44 kcal/mol
ATGTACACGTGTGACG	0.2 kcal/mol
TGTTTCACGTGCAGGG	0.26 kcal/mol
ATATGCACGTGTGTAA	-0.11 kcal/mol
TAGTTCACGTGATTGC	0.24 kcal/mol
CGTTTCACGTGGTAAG	0.21 kcal/mol
ATTCGCACGTGTGGAT	-0.08 kcal/mol
TACAGCACGTGGGGTA	-0.23 kcal/mol
ACGTGCACGTGAGTGT	0.12 kcal/mol
GATATCACGTGCGTGG	0.06 kcal/mol
TGGGGCACGTGGCAAT	-0.18 kcal/mol
GCGGGCACGTGTTAGA	-0.1 kcal/mol
GTTCACACGTGGTTTG	0.15 kcal/mol

Sequence	relative binding free energy
GTCGGCACGTGCGTTT	-0.19 kcal/mol
CCGGGCACGTGAGGTG	0.11 kcal/mol
TCTGGCACGTGGAGTA	-0.16 kcal/mol
ACGTTCACGTGGGGGG	0.11 kcal/mol
AGAGTCACGTGGGGTA	-0.11 kcal/mol
ATTTTCACGTGCAAGT	0.24 kcal/mol
AGGCACACGTGGAGGG	-0.03 kcal/mol
ATTCTCACGTGGGAAT	0.23 kcal/mol
GGGGGCACGTGGTAGC	-0.16 kcal/mol
AGTATCACGTGATAGA	0.25 kcal/mol
TAGGACACGTGGTTCT	-0.07 kcal/mol
TAGGTCACGTGTCTTA	0.08 kcal/mol
GCATTCACGTGTATGT	0.27 kcal/mol
GGTCGCACGTGGGAGC	-0.01 kcal/mol
CTAGTCACGTGGATAG	0.19 kcal/mol
TTTAACACGTGCGGTG	-0.03 kcal/mol
AAGAACACGTGTATGT	0.08 kcal/mol
TTTGACACGTGCAGAT	0.06 kcal/mol
TTGTCCACGTGTAATG	0.14 kcal/mol
AATTGCACGTGTAATG	0 kcal/mol
GTTAGCACGTGATTGA	0.13 kcal/mol
TCATGCACGTGGGCGG	-0.05 kcal/mol
TTATACACGTGTTGAC	0.13 kcal/mol
GCGTTCACGTGGCGTG	0.29 kcal/mol
AAATGCACGTGGGCGG	-0.16 kcal/mol
TGAGGCACGTGGTTAT	-0.14 kcal/mol

Sequence	relative binding free energy
GTATTCACGTGGACAG	0.31 kcal/mol
TAGGTCACGTGTGGCT	0.04 kcal/mol
AGTTTCACGTGAGCGG	0.16 kcal/mol
AGTTACACGTGTGAGA	0.29 kcal/mol
TTTATCACGTGATGCG	0.16 kcal/mol
TTGGTCACGTGGTACC	0.09 kcal/mol
TAGCTCACGTGGGTCT	0.11 kcal/mol
GAGGGCACGTGTGTGG	0.02 kcal/mol
TGTAACACGTGAATAG	0.33 kcal/mol
TTCTACACGTGTTTAG	0.22 kcal/mol
TTCGTCACGTGAGGAT	0.17 kcal/mol
TGTCACACGTGGGCAG	-0.08 kcal/mol
GCCGTCACGTGTGGGA	0.11 kcal/mol
AGTGGCACGTGACGTA	0.09 kcal/mol
TGGCCCACGTGTGGGT	0.01 kcal/mol
TGGGACACGTGCGGCT	-0.11 kcal/mol
ACTTTCACGTGGTTGT	0.12 kcal/mol
TTTTGCACGTGTTGAG	0.02 kcal/mol
GGAGTCACGTGATCGG	0.2 kcal/mol
TCAGGCACGTGCGGGG	-0.15 kcal/mol
AATTTCACGTGAGCTA	0.45 kcal/mol
GTTTACACGTGCTGTA	0.03 kcal/mol

Reference: the BET-seq Pho4 binding data (Le et al. 2018)
